Results as given in PMC3510517.
Results are given in words; binding and its absence hold for the method and conditions named. Binding seen in cells or lysates may run through a third protein. Some entries that bind do so weakly or less than the wild type.

Legend:
Test in all cases: co-IP; endogenous proteins from nuclear extract of Drosophila embryos; extract treated with DNase I and RNase before immunoprecipitation; affinity-purified rabbit antibodies, preimmune serum or IgG as control; western blot
[1] = biological target: T1, Nonstop (Drosophila (endogenous in embryos)) (UniProt Q9VVR1)
T1 sequence: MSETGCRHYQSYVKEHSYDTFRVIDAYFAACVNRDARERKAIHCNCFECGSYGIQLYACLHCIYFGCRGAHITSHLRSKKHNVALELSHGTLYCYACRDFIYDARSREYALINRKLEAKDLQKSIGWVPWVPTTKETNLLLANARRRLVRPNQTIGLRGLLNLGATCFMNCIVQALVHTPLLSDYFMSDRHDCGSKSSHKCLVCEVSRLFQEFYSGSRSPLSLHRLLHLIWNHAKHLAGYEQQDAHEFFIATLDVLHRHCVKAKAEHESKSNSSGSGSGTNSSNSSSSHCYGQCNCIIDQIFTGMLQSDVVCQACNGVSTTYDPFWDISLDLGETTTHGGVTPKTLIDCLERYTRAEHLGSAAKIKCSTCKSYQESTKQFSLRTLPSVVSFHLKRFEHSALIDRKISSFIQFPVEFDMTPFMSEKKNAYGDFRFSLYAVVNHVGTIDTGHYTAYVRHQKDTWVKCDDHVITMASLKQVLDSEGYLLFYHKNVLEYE

[2] = biological target: T2, Sgf11 (Drosophila (endogenous in embryos)) (UniProt Q9VVR6)
T2 sequence: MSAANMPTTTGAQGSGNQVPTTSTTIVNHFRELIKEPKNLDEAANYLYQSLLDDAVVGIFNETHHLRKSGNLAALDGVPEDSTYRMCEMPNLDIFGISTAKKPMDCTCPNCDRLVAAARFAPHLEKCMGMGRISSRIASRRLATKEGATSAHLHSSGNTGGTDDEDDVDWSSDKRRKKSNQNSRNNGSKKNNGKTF

[3] = biological target: T3, ENY2 (Drosophila (endogenous in embryos)) (UniProt Q9VYX1)
T3 sequence: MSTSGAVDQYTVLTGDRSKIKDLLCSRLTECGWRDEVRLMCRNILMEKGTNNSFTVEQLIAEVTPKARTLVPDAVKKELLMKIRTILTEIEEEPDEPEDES

B1: cap-binding protein 80 (Cbp80) (protein, UniProt Q7K4N3 1-800)
chain: MSRRRAHDTEDEGYDHRRNKRRRVSENQEIEDRLESLILRVGERSTSSVESNLEGLVSVLEADLGTFRLKILRILSDCAVRMPEKCTVYTTLVGLLNAKNYKFGGEFVDHMVKTFKESLKMCRWDAARYSLRFLADLVNCHVISATSLLQLLDTMIDVSNEDTVPQVRRDWFVFAVLSTLPWVGRDLYEKKESALESLLLRIEVYLNKRSKKHHNALRVWSSDAPHPQEEYLDCLWAQIRKLRQDNWAEKHIPRPYLVFDSILCEALQHNLPTIVPPPHHDNFEYPMPWVVYRMFDYTDCPDGPNLPGAHSIERFLIEEHLHHIIETYHHERKDCAAQLLSFPYKHKIPLEYCIVEVVFAELFHMPTPRYLDICYGSILIELCKLQPATLPQVLAQATEILFMRIDSMNTSCFDRFVNWFSYHLSNFKFTWSWDEWDSCLLLDGEHPRPKFIQEVLQKCLRLSYHQRITEMMPTTYAKLIPLTPVPNYKYANEEAANLPGTTVAHQLVVAIRQKCTPEEVVNILKDIPNSGYSGEEMSDGSFNALKIDVFVQTLLNLGSKSFSHSFAAISKFHSVFRALAETEEAQICILHNIFELWSSHQQMMVVLIDKLLKLQIVDCSAVATWIFSKEMTGEFTKLYLWEILHLTIKKMNKHVIKLNTELSEAKEKLAKADSSSSDSEDDSSHKRKKPITHADKPSEEVVERMEEKLEAANVNQKRLFLIVFQRFIMILSEHLLRSDTDGRDPDTDWYRWTIGRLQQVFLMHHEQVQKYSSTLETLLFTSDLDTHILEVFQQFVALRA
[1]
  binding: no binding
[2]
  binding: binds
[3]
  binding: no binding
